{"source": "paper PMC7378375", "about": "“High-Throughput Screening of a Functional Human CXCL12-CXCR4 Signaling Axis in a Genetically Modified S. cerevisiae: Discovery of a Novel Up-Regulator of CXCR4 Activity” (Frontiers in Molecular Biosciences, 2020)", "proteins": {"B1": {"name": "CXC chemokine ligand 12 (human CXCL12α, recombinant) (ligand)", "chain": "not shown", "notes": "It was 15N-labelled for NMR; the SEC-MALS and the yeast assay used recombinant CXCL12; also called 15N-CXCL12"}}, "target": "the molecule itself", "test": "SEC-MALS; Superdex 75 10/300 GL; 25 mM HEPES pH 7.4, 500 mM NaCl; the same with 100 mM potassium phosphate; the same with 100 mM potassium phosphate and 50 mM fosfosal"}
{"protein": "B1", "values": [{"measurement": "binding result", "value": "binds"}]}
